In all, about 48,000 compounds went through this assay and about 450 (0.94%) were called active. Roughly 19% stayed inconclusive and do not appear here. The call rests on the fitted dose curve; in most records, active means well fitted inhibition curve with a large enough effect; inconclusive means small, poorly fitted or top-dose-only effect; inactive means no such curve, though single readings can be large or run the other way. Some of the results follow.
experiment: Primary qHTS for Identification of Small Molecule Inhibitors of Huntingtin Promoter Activity; details: HEK293 HTT promoter firefly luciferase reporter (activity 0% = vehicle and -100% = no light), 24 h; series mostly up to 57.5 µM; activity change, negative = inhibition: at the top concentration; further: nearly all actives have a fitted effect of over 50% in size
Method in brief: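 HEK293 luciferase promoter-reporter cells (2,500/well) plated 24 h, then compounds added at up to 57.5 uM final for 24 h at 37 °C. Firefly luminescence by Dual-Glo, normalized to vehicle (0%) and zero RLU (-100%).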
Potency means the concentration at half of the fitted maximal effect.

Activity change, negative = inhibition, inactive:
Cc1ccccc1-c1cc2nccc(-c3cc(Cl)ccc3O)n2n1 0.788%
CCCc1noc(-c2ccc(NCc3ccc(C)cc3)c([N+](=O)[O-])c2)n1 -10.6%
Cc1ccc(NC(=O)CN2C(=O)COc3ccc(S(=O)(=O)NC4CCCC4)cc32)c(Cl)c1 -19.2%
Cc1nc(C)c(CCNS(=O)(=O)c2ccc(F)cc2)s1 -31.1%
COc1ccc(CNC(=O)c2cnc3sc(N4CCCC4)nn3c2=O)c(OC)c1 7.39%
CCc1ccc(Nc2nnc(-n3nc(C)cc3C)c3ccccc23)cc1 16.6%
CCCCNC(=O)CSc1nc2cc3c(cc2c(=O)n1CCCCCC(=O)NCc1ccc(OC)cc1)OCO3 -9.94%
Cc1ccccc1C(=O)NCCc1sc(-c2ccc(Cl)cc2)nc1C -10.4%
COc1ccc(C2CC(=O)N(CC(=O)Nc3ccc(C)c(Cl)c3)c3ccccc3S2)cc1OC (stereo not drawn) -29.2%
COc1ccc(N(Cc2cccs2)C(=O)Nc2cccc(Cl)c2)cc1 -15.1%
CCOC(=O)C1CCCN(S(=O)(=O)c2ccc3c(c2)oc(=O)n3C)C1 (stereo not drawn) -24.1%
Cc1ccccc1NC(=O)CCN1C(=O)c2ccccc2Sc2ncccc21 -1.93%
COc1cccc(NC(=O)CCc2c(C)nc3ncnn3c2C)c1 -6.14%
Cc1cn2c(=O)cc(COc3ccc(NC(=O)COc4ccccc4)cc3)nc2s1 -3.4%
Cc1ccc(-n2c(=O)c3ccc(C(=O)NCc4ccccc4Cl)cc3n(CC(=O)Nc3ccc(C)cc3C)c2=O)cc1 -14%
Cc1cc(C)cc(C(=O)n2nc(C)c(S(=O)(=O)N3CCOCC3)c2C)c1 -0.252%
CCOC(=O)c1c(NC(=O)c2ccc(F)cc2)sc2c1CCC(CC)C2 (stereo not drawn) -15.5% [at 11.5 µM]
CCOC(=O)c1cccc(NC(=O)[C@H](CSCc2ccccc2)N2Cc3ccccc3C2=O)c1 -27%
Cc1ccc(Nc2cc(C)nc3nncn23)c(C)c1 -20.5%
CN1C(=O)C2(c3ccccc31)N(c1ccc(Br)cc1)C(=O)CS2(=O)=O (stereo not drawn) -17.6%
O=c1[nH]c(C2CCCN(S(=O)(=O)c3ccccc3)C2)nc2c1nnn2Cc1ccc(OC(F)(F)F)cc1 (stereo not drawn) -10.4%
O=C(C1CCC(Cn2c(=O)c3sccc3n(Cc3ccc(F)cc3)c2=O)CC1)N1CCOCC1 (stereo not drawn) -21.2%
CN1C(=O)c2[nH]nc(-c3ccc(F)cc3)c2C1c1cccc(O)c1 (stereo not drawn) 2.21%
Cc1cc(C)cc(Nc2nc3cc(Cl)c(Cl)cc3nc2-n2nc(C)cc2C)c1 -12.8%
Cn1cc(-c2cc3n(n2)CCC(=O)N3CCCC(=O)NCc2ccccc2Cl)c2ccccc21 -10.2%
CC(C)CCn1c(SCc2cccc(F)c2)nc2ccsc2c1=O -11.2%
CCc1ccc2oc(C(=O)NCc3ccccc3)cc(=O)c2c1 36.1% [at 11.5 µM]
CCCCOc1ccc(C2C(=O)N(C3CCCCC3)CC(=O)N2CCCC)cc1 (stereo not drawn) -8.9%
Cc1ccc(NC(=O)Cn2c(-c3nonc3N)nc3ccccc32)c(Br)c1 -25.9%
COc1cccc(CNC(=O)CCc2c(C)c3ccc(O)c(C)c3oc2=O)c1 -6.46%
CCOC(=O)c1noc2ncn(CC(=O)Nc3ccccc3OC)c(=O)c12 -1.65%
Cc1ccc(-n2ncc(C(=O)NCCCN3CCc4ccccc4C3)c2C2CCN(C(=O)OC(C)(C)C)CC2)c(C)c1 -13.7%
CCCCN(CC)CCCNC(=O)c1ccc2c(c1)NC(=O)CN2C -10.7%
COc1ccc(-n2c(SCc3ccccc3)nc3c([nH]c4ccccc43)c2=O)cc1 -1.76%
COc1cccc(CNC(=O)Cn2nc(N3CCN(c4ccccc4OC)CC3)ccc2=O)c1 0.0798%
COc1ccc(C)cc1NC(=O)CN1C(=O)COc2ccc(S(=O)(=O)N3CCC(C)CC3)cc21 -11.2%
Cc1c(Cl)cccc1NC(=O)C(C)n1c(=O)cc(C)c2c(C)nn(-c3ccccc3)c21 (stereo not drawn) 0.844%
CCOc1ccc(-n2c(=O)c3c(C)c(C)sc3n(Cc3ccccc3C)c2=O)cc1 -6.19%
CCNC(=O)CCSc1nnc(-c2ccc(O)cc2)o1 18.5%
CCC(Oc1ccc(F)cc1)C(=O)Nc1cc(-c2ccc(C)cc2)no1 (stereo not drawn) -8.75%
CCN(CC)c1ccc(NC(=O)c2cc(CN3CCCC3)on2)c(C)c1 -12.6%
Cn1c(=O)c2ccccc2n2c(CCC(=O)N3CCN(c4cccc(Cl)c4)CC3)nnc12 -0.569%
COc1ccc(Cl)cc1NC(=O)C(C)n1nnc2sc3c(c2c1=O)CCCC3 (stereo not drawn) -2.6%
Cc1cc(C)cc(N2C(=O)CC(c3ccc(C(F)(F)F)cc3)C3=C2COC3=O)c1 (stereo not drawn) -5.62%
COc1ccccc1C(=O)Nc1cc(-c2cccc(Br)c2)nn1-c1ccccc1 -19.9%
CCN1CCN(c2csc3ccc(Cl)cc3c2=O)CC1 21.2%
Cc1cccc(NC(=O)CSc2nc(-c3cccs3)cc(C(F)(F)F)c2C#N)c1 -26%
CCCCn1c(Oc2cccc(C(=O)OC)c2)nc2c1c(=O)n(C)c(=O)n2C -0.449%
COc1ccc(Cn2c(SCC(=O)NCc3ccccc3)nc3ccccc32)cc1 -37.8%
CCOc1ccc(NC(=O)Cn2nnc(C(=O)OC)c2C(=O)OC)cc1 -12.2%
Cc1ccc(C(=O)NCC(=O)OCc2cc(=O)n3nc(C4CCCCC4)sc3n2)cc1 -18.3%
COc1ccc(C(=O)NC2(C(F)(F)F)C(=O)NC(C)=C2C#N)cc1 (stereo not drawn) -2.05%
Cc1ccc2c(c1)C(c1ccc(F)cc1)N(C(=O)C(C)C)CC(=O)N2 (stereo not drawn) -1.41%
CCc1cccc(NC(=O)Cn2nc(CC)n3c(cc4cc(C)ccc43)c2=O)c1 14.2%
O=c1oc2ccc3ccccc3c2cc1-c1nnc(Nc2ccccc2)s1 -2.05%
Cc1ccc(CCNC(=O)c2sc3ncccc3c2-n2cccc2)cc1 -16.1%
COc1cc(NC(=O)c2nc3cc(C)c(C)cc3n(C)c2=O)cc(OC)c1OC -0.223%
COc1cccc(NC(=O)CSc2nc(O)c(C/C=C/c3ccccc3)c(=O)[nH]2)c1 -8.89%
COc1ccc(N2CCN(S(=O)(=O)c3ccc(-c4cc(C(F)(F)F)on4)s3)CC2)cc1 2.74%
CCC(=O)Nc1cc(C(=O)NCc2ccc(C)cc2)ccc1S(=O)(=O)c1ccc(C)cc1 -8.84%
Cc1cccc(OCc2ccc(-c3nc(C#N)c(N4CCN(c5ccccc5)CC4)o3)o2)c1 -21.9%
Cc1cc(C)c2oc(C(=O)Nc3c(C(=O)c4ccc(F)cc4)oc4ccccc34)cc(=O)c2c1 1.81%
CC1CCC(NC(=O)C2(C)Cc3ccccc3C(=O)N2Cc2ccccc2Cl)CC1 (stereo not drawn) -13.8%
CCN(CC)c1ccc(NC(=O)Cn2c(C)c3cnn(-c4ccccc4)c(=O)c3c2C)c(C)c1 -13.9%
Cc1cc(Cl)ccc1NC(=O)CCS(=O)(=O)c1cc2c(cc1C)NC(=O)CO2 -21.1%
COC(=O)c1c(-c2cccs2)csc1NC(=O)c1cc(OC)cc(OC)c1 29.8%
Cc1ccc(CNC(=O)C(CC(C)C)N2Cc3ccccc3C2=O)cc1 (stereo not drawn) -29.2%
Cc1cc(C)cc(NC(=O)C(Cc2ccccc2)N2Cc3ccccc3C2=O)c1 (stereo not drawn) -19.4%
Clc1cccc(-n2ncc3c(NCCCc4ccccc4)ncnc32)c1 -23.7%
CCN(C(=O)Cn1nc(Cc2cccnc2)c2ccccc2c1=O)c1cc(C)ccc1C -21.7%
Cc1ccccc1C(=O)Nc1nnc(S(=O)(=O)N2CCCc3ccccc32)s1 -20%
Cc1ccc(-n2c(=O)c3sccc3n(Cc3cc(=O)n4ccccc4n3)c2=O)cc1 -9.4%
COc1ccc(C(=O)N2CCC(C(=O)Nc3ccc(OC)cc3OC)CC2)cc1 -21.4%
Cc1onc(-c2ccccc2)c1C(=O)N[C@@H]1C(=O)N2[C@@H](C(=O)O)C(C)(C)S[C@@H]12 5.4%
Cc1cccc(-c2cc(NC(=O)COc3ccccc3F)n(-c3ccccc3)n2)c1 14.2%
Cc1nnsc1C(=O)Oc1ccccc1Cl 3.16%
Cc1ccc(-c2cn3c4c(=O)n(C)c(=O)n(C)c4nc3n2-c2cccc(Cl)c2)cc1 -11.1%
CSc1ccccc1NC(=O)CCS(=O)(=O)c1nc(-c2cccs2)cc(C(F)(F)F)n1 -5.6%
CCn1c(C(=O)Nc2cc(C)cc(C)c2)cc2sc(Cl)cc21 -21.7%
COc1ccc(C(=O)N=c2sc3cc(Cl)ccc3n2C)cc1 11.2%
CCN(CC)CCOC(=O)c1ccc(NC(=O)CCn2c(=O)oc3ccccc32)cc1 -0.0139%
N#Cc1ccccc1NC(=O)C(=O)NCC(c1cccnc1)N1CCc2ccccc2C1 (stereo not drawn) 0.807%
CN1[C@@H]2CC[C@H]1CC(OC(=O)c1c[nH]c3ccccc13)C2 (stereo partly drawn) -4.77%
CCCCN(C)c1ncnc2c1cnn2-c1cccc(Cl)c1 16.4%
CCC(=O)N1CCc2cc(S(=O)(=O)NCCC(=O)Nc3cccc(C)c3C)ccc21 -15.4%
Cc1cc(SCC(=O)NCc2ccccc2)nc(=O)[nH]1 -8.92%
COc1cccc(CNc2ccc3c(c2)ncn3C)c1OC 9.78%
O=C(NCc1ccccc1Br)c1ccc(-n2cnc3cccnc32)cc1 -22.8%
COc1ccc(N(CC(=O)Nc2ccc(Cl)cc2C)S(=O)(=O)c2ccccc2)c(OC)c1 -12.8%
COc1cc(-c2nnc(SCC(=O)N3CCCc4ccccc43)o2)cc(OC)c1OC -9.44%
CCCN(C(=O)CCn1cnc2onc(-c3ccc(F)cc3)c2c1=O)c1ccccc1C -25.1%
CCOC(=O)c1c(-c2ccccc2)csc1NC(=O)c1cc(-c2cccc(OC)c2)on1 -11.2%
Cc1ccc(Cl)cc1N1CCN(C(=O)Cn2nc(C)n3c(cc4sccc43)c2=O)CC1 -10.4%
Cc1cc(C)cc(C(=O)Nc2c3c(nn2-c2ccccc2C)CS(=O)(=O)C3)c1 -7.71%
O=C(Cn1nc2c(cc1=O)CCCC2)NCc1ccccc1Cl 49.7%
Cc1ccc(C(=O)Nc2nnc(SCc3cc(=O)n4ccc(C)cc4n3)s2)cc1 22.4%
Cc1cc(C)cc(NC(=O)Cn2nnc(C(=O)NCc3ccco3)c2N)c1 -19%

Potency, active:
COc1ccc(OC)c(CCNC(=O)C(C)n2nc(C)c3c(C)n(-c4ccc(C)cc4)nc3c2=O)c1 (stereo not drawn) 1580 nM

From PubChem BioAssay AID1508623 (National Center for Advancing Translational Sciences (NCATS), 2021)
